Assay results as given in the supplement of paper PMC3334620.
Over roughly 33,000 sequences, “E-score (-0.5 to 0.5)” has its median near -0.053; the highest 2% begin near 0.37. The list shows a part of the results.

molecular target: Hap1 (UniProt P0CE41); assay: PBM E-score (8-mer binding enrichment) (E-score (-0.5 to 0.5)); higher = stronger / more preferred TF binding; most listed sequences are background and not binding sites; conditions: protein concentration: 200 nM; construct: GST-DNA-binding domain
Sequence of UniProt P0CE41 (P0CE41 whole entry, the tested form may be a part): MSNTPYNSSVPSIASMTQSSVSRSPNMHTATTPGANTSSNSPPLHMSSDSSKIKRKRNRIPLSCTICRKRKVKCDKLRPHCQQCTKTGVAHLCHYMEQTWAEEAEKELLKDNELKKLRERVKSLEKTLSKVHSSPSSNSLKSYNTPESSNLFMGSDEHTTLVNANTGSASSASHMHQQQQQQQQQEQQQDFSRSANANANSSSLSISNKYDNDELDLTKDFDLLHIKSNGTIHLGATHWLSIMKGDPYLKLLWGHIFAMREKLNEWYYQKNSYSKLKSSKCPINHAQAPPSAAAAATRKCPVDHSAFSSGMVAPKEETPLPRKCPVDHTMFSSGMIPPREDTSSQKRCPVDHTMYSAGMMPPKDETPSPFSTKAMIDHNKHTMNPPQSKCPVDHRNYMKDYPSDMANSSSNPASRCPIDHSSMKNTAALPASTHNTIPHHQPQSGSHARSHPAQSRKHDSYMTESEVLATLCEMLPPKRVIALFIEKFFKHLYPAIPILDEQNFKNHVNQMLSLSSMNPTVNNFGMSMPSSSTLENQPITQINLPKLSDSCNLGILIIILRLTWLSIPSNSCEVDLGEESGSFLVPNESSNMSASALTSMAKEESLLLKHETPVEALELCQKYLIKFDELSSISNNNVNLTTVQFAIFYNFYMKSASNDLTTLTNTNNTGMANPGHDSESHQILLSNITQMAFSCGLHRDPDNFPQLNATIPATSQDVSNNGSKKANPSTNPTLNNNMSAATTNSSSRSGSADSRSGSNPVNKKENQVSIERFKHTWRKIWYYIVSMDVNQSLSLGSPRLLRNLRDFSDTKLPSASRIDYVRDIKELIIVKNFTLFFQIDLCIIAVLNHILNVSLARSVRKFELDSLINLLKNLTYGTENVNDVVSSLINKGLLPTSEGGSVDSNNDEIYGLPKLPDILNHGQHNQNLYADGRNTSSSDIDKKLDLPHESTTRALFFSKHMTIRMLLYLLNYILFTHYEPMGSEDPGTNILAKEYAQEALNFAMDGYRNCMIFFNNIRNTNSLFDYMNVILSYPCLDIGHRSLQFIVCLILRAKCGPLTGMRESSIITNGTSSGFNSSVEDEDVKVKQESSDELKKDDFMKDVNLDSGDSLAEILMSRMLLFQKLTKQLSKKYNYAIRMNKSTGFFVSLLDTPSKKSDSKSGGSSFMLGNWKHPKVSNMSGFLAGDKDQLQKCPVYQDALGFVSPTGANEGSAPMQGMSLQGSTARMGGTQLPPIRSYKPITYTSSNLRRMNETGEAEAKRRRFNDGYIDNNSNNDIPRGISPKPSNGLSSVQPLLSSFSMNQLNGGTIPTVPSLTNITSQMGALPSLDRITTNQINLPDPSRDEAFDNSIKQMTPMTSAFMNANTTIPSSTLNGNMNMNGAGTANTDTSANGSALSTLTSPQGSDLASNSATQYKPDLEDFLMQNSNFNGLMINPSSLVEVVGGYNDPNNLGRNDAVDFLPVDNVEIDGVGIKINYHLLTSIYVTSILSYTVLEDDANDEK
Procedure, shortened: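 Universal all-10-mer Agilent arrays, double-stranded by primer extension on fresh or once-stripped slides, were probed with about 100-200 nM GST-tagged yeast transcription factors made by PURExpress. Fluorescent anti-GST detected bound protein, and masliner normalised the scans. E-scores from the Universal PBM Analysis Suite were given to each ungapped eight-base word pooled with its reverse complement.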

Row | Sequence | PBM E-score
1 | AGGGTCAA | -0.0982
2 | CCAGCAGC | -0.13
3 | ATAAGTTA | -0.121
4 | GGTAATAC | 0.247
5 | AGCCCTTA | -0.128
6 | GTCGTAAC | -0.164
7 | ACCGATAA | 0.443
8 | ACGTCAGT | -0.0702
9 | GACGTATA | 0.03
10 | CACGCCAA | -0.148
11 | ATAAAAGC | 0.0726
12 | AGTGGTTC | -0.034
13 | TTACCAAA | -0.0884
14 | GATGAGGC | -0.0801
15 | CCTGTACG | -0.0933
16 | AGTGTCGG | 0.311
17 | CACGTCGG | 0.28
18 | CAATCGGA | 0.394
19 | AGAAAAGG | -0.0978
20 | GATGATAC | 0.0542
21 | TACATACA | -0.1
22 | ATAAACGG | 0.163
23 | GCTAATAA | 0.0364
24 | GCCCGCGC | 0.32
25 | AATCGTCA | -0.127

Row | Sequence | PBM E-score
26 | CAGGCAGG | -0.111
27 | ACCGTAGG | -0.166
28 | CACCCCTG | -0.165
29 | AATCGTGA | -0.0626
30 | CCTATCCG | 0.102
31 | CGGCGACG | 0.255
32 | CGCGTTAA | 0.112
33 | GGGAGATA | 0.268
34 | CCGATCGC | 0.169
35 | AGAGAATC | -0.0748
36 | CGAACACA | 0.00679
37 | TCATCGAA | -0.0493
38 | AGTATGAT | 0.0336
39 | ACGTTTTG | -0.289
40 | CGCGGTTA | 0.218
41 | GGCGAGCA | -0.0381
42 | CCGGTGAG | 0.249
43 | GTCTAAAA | -0.0961
44 | GGATTGCA | -0.00418
45 | AAAGGTGA | -0.264
46 | ATCCCCCA | -0.233
47 | GCCTAAGC | -0.0891
48 | ACTGGAAG | -0.155
49 | GAACGCCC | 0.0549
50 | ACGAGCGC | -0.00987

Row | Sequence | PBM E-score
51 | AATTTGGC | -0.0688
52 | AATTACGT | -0.0957
53 | ATGTGATA | -0.244
54 | AAGACGGG | 0.0522
55 | GACCGTAA | 0.133
56 | AGACGGAC | 0.219
57 | CAGCTCTC | -0.178
58 | GCATTACC | 0.165
59 | CAGCAGTA | -0.352
60 | TAGGACTA | -0.0962
61 | AAATCTTG | -0.0381
62 | AACGTCGA | -0.199
63 | CAAACGTG | -0.182
64 | CACAATAG | 0.033
65 | TAGCATAA | -0.0142
66 | GGCCGGAA | 0.363
67 | ACGGTAGC | -0.117
68 | CTCGCTTC | 0.168
69 | ACATATGG | -0.228
70 | GGCGCAGA | -0.0243
71 | CTACAACC | 0.0866
72 | CGCACTCA | 0.0884
73 | CGATAGAG | 0.259
74 | ATTCCAAA | -0.125
75 | TGACCACA | -0.245

Row | Sequence | PBM E-score
76 | GGCCGGCA | 0.345
77 | AAACATAG | -0.21
78 | ACTTCTAG | -0.146
79 | CCATTGTC | 0.0509
80 | AAGTGCGG | 0.245
81 | ATTGGGGG | -0.153
82 | AGCCGTAG | 0.0861
83 | ACAATAGA | 0.00195
84 | GCCAGTAA | -0.106
85 | ACATGTTC | -0.146
86 | CGGCCGCC | 0.274
87 | AATTGTGC | -0.0759
88 | CCTATCGA | -0.275
89 | CTCCCACC | -0.086
90 | CGTCAGGC | -0.0931
91 | GAGGCCGA | 0.248
92 | TAATAGGA | 0.0428
93 | GCGTACGA | -0.0387
94 | ACTTTATG | -0.17
95 | CGTCTAGA | -0.116
96 | GATGCCAA | -0.205
97 | CCACGACG | -0.0495
98 | CGTGCTCA | -0.0549
99 | AGGGTTTA | -0.075
100 | TCTTTAAA | -0.111

Row | Sequence | PBM E-score
101 | ATTGAGGG | 0.0196
102 | AGACTCAC | -0.24
103 | CCGCTCCC | 0.0412
104 | ATAAGTAT | 0.0298
105 | CTTCGTTA | -0.217
106 | CAGGTTAG | -0.203
107 | ATATCTAG | -0.215
108 | ATTCGCCG | 0.295
109 | CGCGTAAG | 0.0955
110 | CGACACCA | -0.0201
111 | CAGCGCCA | -0.174
112 | CAATTATC | 0.253
113 | GTAGCGAA | -0.0922
114 | ACGTTAAA | -0.104
115 | AAACTATG | -0.0719
116 | CCCTGCGC | -0.167
117 | TCGTGTCA | -0.212
118 | ACTGATTA | -0.159
119 | CGTTAAAG | 0.0984
120 | CGTGCTTC | -0.0734
121 | CCACGTAG | -0.147
122 | AAGGGGCG | -0.00882
123 | AAGACCAA | -0.186
124 | GCGCTTCA | 0.00359
125 | GAGACTGC | -0.024

Row | Sequence | PBM E-score
126 | ATCACCCC | 0.0285
127 | AACTTATC | 0.15
128 | GCGCGTCC | 0.0368
129 | AGCCCAGA | -0.0529
130 | CCTAGCCG | 0.236
131 | CTAAAAAC | -0.064
132 | ACAACAGA | -0.186
133 | CGTACTTC | 0.0549
134 | ATAGGCAG | -0.148
135 | ACATATCG | 0.176
136 | CGCACCTA | -0.0638
137 | TACCCGAA | 0.28
138 | GAGGTTCA | 0.00726
139 | CATTTCTC | -0.0203
140 | GCACTGCC | 0.171
141 | TGAGAAAA | -0.148
142 | AACCCCCA | -0.217
143 | CAGCGGCC | 0.147
144 | AAACCGAT | 0.305
145 | ATGTGGTG | -0.0677
146 | CGTTATAG | -0.0475
147 | GCGGCTCA | 0.073
148 | ACGACCAC | -0.134
149 | AGAGGCGC | -0.199
150 | GGCTAGAA | 0.00648

Row | Sequence | PBM E-score
151 | ACGCCCCT | -0.17
152 | AGAGTGAA | -0.161
153 | CGGCGCCC | 0.12
154 | GAGCTCAA | -0.00973
155 | AGCGGATA | 0.326
156 | ATCGGGGA | 0.386
157 | CGGCTCTC | 0.0925
158 | CTAACAAG | -0.287
159 | ACGTTCCT | -0.121
160 | ACCAAGAG | -0.188
161 | GGAATACA | 0.182
162 | CTGTACAG | -0.213
163 | AGGATCCT | -0.0816
164 | CTTTGGGA | -0.136
165 | GCAACAAA | -0.07
166 | CGAAGCTA | -0.0412
167 | CCGACAGA | 0.337
168 | CGCCTCTA | -0.0298
169 | CCCCACAA | -0.0864
170 | ACATTACG | 0.0279
171 | ATGCTTGC | -0.153
172 | ACGGAGGA | 0.211
